In publication PMC7819943, “Rice protein-binding microarrays: a tool to detect cis-acting elements near promoter regions in rice” one finds binding signal data, which are given here for 42 sequences.

The list shows a part of the results.

This experiment concerns the target T1, OsWOX13 (Oryza sativa, UniProt Q5QMM3 1-267).
T1 sequence: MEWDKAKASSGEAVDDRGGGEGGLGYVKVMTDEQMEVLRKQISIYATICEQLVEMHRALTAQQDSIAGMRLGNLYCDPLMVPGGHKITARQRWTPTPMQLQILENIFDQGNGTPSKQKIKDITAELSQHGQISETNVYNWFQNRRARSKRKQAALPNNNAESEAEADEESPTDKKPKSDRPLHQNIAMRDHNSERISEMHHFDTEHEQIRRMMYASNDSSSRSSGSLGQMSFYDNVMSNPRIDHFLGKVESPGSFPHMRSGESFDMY
The experiment can be described thus: protein-binding microarray (RPBM); PBS, 2% BSA, 51.3 ng/ul salmon testes DNA, 50 uM zinc acetate, 200 nM TF, 25 C, 1 h; high values mean tight binding. The following applies: protein: recombinant; tags: N-terminal polyhistidine and DsRed monomer fusion (pET32a); label: CyDye5-dUTP incorporated in the synthesized complementary strand; 3' TTTTT single-stranded linker to array surface; dsDNA, one strand shown. Put shortly: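 Transcription factors, each fused N-terminally to a polyhistidine tag and DsRed, were expressed in E. coli BL21-CodonPlus and purified on Ni–NTA. A custom Agilent array was made double-stranded by primer extension with Cy5-dUTP and blocked with 2% BSA. It was incubated with 200 nM protein in PBS, 2% BSA, salmon testes DNA and 50 µM zinc acetate at 25 °C for 1 h, then washed. The binding signal is per-feature fluorescence intensity (arbitrary units) read on an Axon 4000B scanner.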
With “GGGATTGACAAGTGGGCCCATGGGAAAATTTGTCTTTAACCGGAGTCACCTAGTGCAG”, the binding signal was 31700 fluorescence intensity (a.u.).

With “CACTATCAATTTGACCATGGAATTTCCAATCTGGTGGATACGGAGTCACCTAGTGCAG”, the binding signal is 6840 fluorescence intensity (a.u.).

Consider “ATAGTTAATTTGTAGGAATCATAACGATAATATCGAACCTCGGAGTCACCTAGTGCAG”, for which the binding signal was 19700 fluorescence intensity (a.u.).

As for “AACATATTACTGTCAACTGATGACTTGGCTGTATTAGAAGCGGAGTCACCTAGTGCAG”, the binding signal was 8000 fluorescence intensity (a.u.).

As for “TTCAATAATTTTCTCCAACTTCGCTGGACTTTGAAAGGCCCGGAGTCACCTAGTGCAG”, the binding signal was 4950 fluorescence intensity (a.u.).

Turning to “ATCAAATTTTGAAAATTCAAAATTTGAATTGTCCAAATGACGGAGTCACCTAGTGCAG”, the binding signal is 3610 fluorescence intensity (a.u.).

As for “ACCATGGTAATTAGGCTTATCACGTGTGCGGAAACGATAACGGAGTCACCTAGTGCAG”, the binding signal is 10300 fluorescence intensity (a.u.).

For the sequence “AAAATATATATTGAGAATTGATTAGTAATTTACGCAGCAACGGAGTCACCTAGTGCAG”, the binding signal was 33100 fluorescence intensity (a.u.).

Consider “TCTTATCTATTAGTAAATCATTTACTCATGGGCTGAGTCTCGGAGTCACCTAGTGCAG”, for which the binding signal is 6260 fluorescence intensity (a.u.).

Take “GATGAAGATTGATATTACCTGCGGCCGCCGGCGCCGCTGTCGGAGTCACCTAGTGCAG”: the binding signal is 7110 fluorescence intensity (a.u.).

As to “AGACTAATAATAACACAAATTATAGATTCCGCTTGTAAACCGGAGTCACCTAGTGCAG”, the binding signal is 6720 fluorescence intensity (a.u.).

For the sequence “CCGACCCGTTGGATTGATAAAACCAACTGCTTCCCGCTCCCGGAGTCACCTAGTGCAG”, the binding signal is 6190 fluorescence intensity (a.u.).

For “TGTTGATTGCAGGATCAAATCAACTGGCATGCTCATGAACCGGAGTCACCTAGTGCAG”, the binding signal is 41900 fluorescence intensity (a.u.).

Take “AATATAATTTACTTCATTATATCACTTCACTGCCAATAGCCGGAGTCACCTAGTGCAG”: the binding signal is 18300 fluorescence intensity (a.u.).

Take “CTAATAATTATTACTTCCTTCATTTATATTATAAGTTGTTCGGAGTCACCTAGTGCAG”: the binding signal is 39000 fluorescence intensity (a.u.).

On to “AATATTAATGTTAATGAATCGGTCTATCTAGATTCATTGTCGGAGTCACCTAGTGCAG”, for which the binding signal is 3200 fluorescence intensity (a.u.).

For “AAGCATCATTGACGTGATTACCGTCCGGTGACTGACGTACCGGAGTCACCTAGTGCAG”, the binding signal was 20300 fluorescence intensity (a.u.).

For the sequence “CATCAATCACACACGTTGAGAGAACCTAACTCCCTTCGTCCGGAGTCACCTAGTGCAG”, the binding signal was 25200 fluorescence intensity (a.u.).

On to “TTGACAGCTAGATGAGTCCTCAGATGAATCATGATGGCATCGGAGTCACCTAGTGCAG”, for which the binding signal is 6220 fluorescence intensity (a.u.).

For the sequence “CCATGATTTGATAATGTGGTGCTACAGTAAACATTTGCTACGGAGTCACCTAGTGCAG”, the binding signal was 39700 fluorescence intensity (a.u.).

Regarding “AATTATTAATACTTAATTAGTCATGTGCTACTCGTTCTGCCGGAGTCACCTAGTGCAG”, the binding signal was 15000 fluorescence intensity (a.u.).

As for “GCAAGTAACTATTAATTGCACATTTCTTGGTTCATTAACTCGGAGTCACCTAGTGCAG”, the binding signal was 4570 fluorescence intensity (a.u.).

Regarding “CAAAATTACATGGCTTGTAATGCAACAGCGTTGAGTTTGCCGGAGTCACCTAGTGCAG”, the binding signal was 4940 fluorescence intensity (a.u.).

For “TGATAAATTTGGTGTTAAATCTGTAGTTTTGCGATACAACCGGAGTCACCTAGTGCAG”, the binding signal is 6500 fluorescence intensity (a.u.).

Take “AGTATTTAATTGGATATAGGTTCATTGTACTAACTAATAACGGAGTCACCTAGTGCAG”: the binding signal is 10800 fluorescence intensity (a.u.).

Regarding “CCTTTTAATAACATTATCAATTTCATGATATACTGAGCACCGGAGTCACCTAGTGCAG”, the binding signal was 7630 fluorescence intensity (a.u.).

“AAATTTTACCAATTACAGTATTACTTAGTAGGGCAAGTTTCGGAGTCACCTAGTGCAG”: the binding signal is 3420 fluorescence intensity (a.u.).

For the sequence “GCTTAGGCATGGTGATTAACTGATTGAAATGACCAGTGTTCGGAGTCACCTAGTGCAG”, the binding signal was 29700 fluorescence intensity (a.u.).

Consider “CAGGCTTCCAGCCCAATTAATTAATTAGGAGTAGGATATGCGGAGTCACCTAGTGCAG”, for which the binding signal was 6320 fluorescence intensity (a.u.).

As to “CTATGTTCAATCTATTATTATATTATGGTGAACTTGTTCACGGAGTCACCTAGTGCAG”, the binding signal is 5130 fluorescence intensity (a.u.).

In the case of “TCTCGTAAATTAGCTTAGAGATTATGAAATGGGTTTTATCCGGAGTCACCTAGTGCAG”, the binding signal was 8370 fluorescence intensity (a.u.).

Turning to “TTTATAATGAAATTTCAACCCCTTTACCTTTTGTTTGTTTCGGAGTCACCTAGTGCAG”, the binding signal was 4890 fluorescence intensity (a.u.).

Consider “CCTAATTAATATTAAACCACCAAATTAAATCCACACCAAACGGAGTCACCTAGTGCAG”, for which the binding signal is 33600 fluorescence intensity (a.u.).

As to “AATGATTTCAACTGAAAAGGTCATCAACATCAAAGTTGTACGGAGTCACCTAGTGCAG”, the binding signal was 5720 fluorescence intensity (a.u.).

As for “TAAAACAACAAATTTAATTGTAAATTACACGTTCAACTTTCGGAGTCACCTAGTGCAG”, the binding signal is 10800 fluorescence intensity (a.u.).

Regarding “GGTCATATGTTTCTAATTGAAATGCAAAATCGGGAAAATGCGGAGTCACCTAGTGCAG”, the binding signal was 3250 fluorescence intensity (a.u.).

On to “GTTTAATTAACCTCCAAATCCCATCATTCTTGATTAACTACGGAGTCACCTAGTGCAG”, for which the binding signal was 19500 fluorescence intensity (a.u.).

Regarding “AGCAAATCATCTCAATTGCTTATAGTTTTCTCGATGATTACGGAGTCACCTAGTGCAG”, the binding signal is 5710 fluorescence intensity (a.u.).

Consider “GCTAAACTTGTGCTAAATGGATTGAGATTCTCTGCAAGTGCGGAGTCACCTAGTGCAG”, for which the binding signal was 15400 fluorescence intensity (a.u.).

As for “TTAATTTGTTATGATGCACATTTGATCCATTTATAGTTTTCGGAGTCACCTAGTGCAG”, the binding signal is 9820 fluorescence intensity (a.u.).

For “ATAAAGTGTCCATCAATTTATTGTCAGCGGCGATCTCATGCGGAGTCACCTAGTGCAG”, the binding signal was 4910 fluorescence intensity (a.u.).

As to “ACACTTTCAATTACAGGATTTTAAATCTACGTTATACCGACGGAGTCACCTAGTGCAG”, the binding signal was 25100 fluorescence intensity (a.u.).
